Measured values from the supplement of paper PMC4967469.
IC50 is the fitted dose that halves viability relative to control wells, and lower means more sensitive; a fit beyond the top or the lowest dose is shown as a bound at that dose. The AUC spans the tested range (256-fold, ending at the top dose) of the same fit; the more sensitive the line, the further below 1. For some assays here: Any top dose called inferred was derived from the fitted curves, not read from the paper.

How the values were obtained:
Assay in all cases: Viability of human cancer cell lines after 72 h of drug (GDSC screen)
[1] = compound: COc1cc(Nc2c(C#N)cnc3cc(OCCCN4CCN(C)CC4)c(OC)cc23)c(Cl)cc1Cl [Bosutinib]; conditions: top dose 2 µM
Protocol: (§1)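 Human cancer cell lines in 384-well plates, medium with 10% serum, drug for 72 h over a 256-fold dose range (nine 2-fold or five 4-fold steps up to the top dose). Adherent lines were fixed and stained with the nucleic acid dye Syto60, suspension lines read with resazurin; signal relative to control wells, capped at 0 and 100%. One two-parameter sigmoid per drug and line, fitted in a mixed model over all curves with the slope shared within a line.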

[2] = compound: Cc1ccc(C(=O)Nc2cccc(C(F)(F)F)c2)cc1Nc1nc(-c2cccnc2)nc2c1cnn2C [NVP-BHG712]; conditions: top dose 10.24 µM; top dose inferred
Protocol: as §1

[3] = compound: CO[C@@]12[C@H](COC(N)=O)C3=C(C(=O)C(C)=C(N)C3=O)N1C[C@@H]1N[C@@H]12 [Mitomycin C]; conditions: top dose 16 µM
Protocol: as §1

[4] = compound: O=C(O)CNC(=O)c1c(O)c2ccccc2n(Cc2ccccc2)c1=O [IOX2]; conditions: top dose 0.1 µM; top dose inferred
Protocol: as §1

[5] = compound: CO[C@@H]1[C@H](N(C)C(=O)c2ccccc2)C[C@H]2O[C@]1(C)n1c3ccccc3c3c4c(c5c6ccccc6n2c5c31)C(=O)NC4 [Midostaurin]; conditions: top dose 0.512 µM; top dose inferred
Protocol: as §1

CAPAN-1 (pancreas, adherent) was tested, and the AUC [1] was 0.877, the IC50 [1] was > 2000 nM and the AUC [2] was 0.914. The IC50 [2] was > 10200 nM, the AUC [3] was 0.2 and the IC50 [3] was 114 nM. The AUC [4] was 0.969 and the IC50 [4] was > 100 nM.
KYSE-270 (oesophagus, adherent) gave an AUC [5] of 0.779, an IC50 [5] of 178 nM and an AUC [2] of 0.924. The IC50 [2] was > 10200 nM, the AUC [3] was 0.171 and the IC50 [3] was 124 nM. For the same cell line, the AUC [4] was 0.99 and the IC50 [4] was > 100 nM.
For KM12 (large intestine, adherent), the AUC [1] was 0.968, the IC50 [1] was > 2000 nM and the AUC [2] was 0.872. The IC50 [2] was > 10200 nM, the AUC [3] was 0.547 and the IC50 [3] was 1360 nM. The AUC [4] was 0.974 and the IC50 [4] was > 100 nM.
Ca-Ski (cervix, adherent) was tested, and the AUC [5] was 0.906, the IC50 [5] was > 512 nM and the AUC [1] was 0.684. The IC50 [1] was 437 nM, the AUC [2] was 0.854 and the IC50 [2] was 9690 nM. The AUC [4] was 0.981 and the IC50 [4] was > 100 nM.
For LN-229 (glioma, adherent), the AUC [5] was 0.97, the IC50 [5] was > 512 nM and the AUC [1] was 0.941. The IC50 [1] was > 2000 nM, the AUC [2] was 0.973 and the IC50 [2] was > 10200 nM. For the same cell line, the AUC [4] was 0.987 and the IC50 [4] was > 100 nM.
“CCRF-CEM (lymphoblastic leukaemia, suspension)” gave an AUC [1] of 0.82, an IC50 [1] of 918 nM and an AUC [2] of 0.714. The IC50 [2] was 2290 nM, the AUC [3] was 0.1 and the IC50 [3] was 68.3 nM. For the same cell line, the AUC [4] was 0.99 and the IC50 [4] was > 100 nM.
With MV-4-11 (leukaemia, suspension) the AUC [2] was 0.949, the IC50 [2] was > 10200 nM and the AUC [3] was 0.026. For the same cell line, the IC50 [3] was < 62.5 nM, the AUC [4] was 0.979 and the IC50 [4] was > 100 nM.
Work on “MOLM-13 (acute myeloid leukaemia, suspension)” yielded an AUC [1] of 0.886, an IC50 [1] of 1970 nM and an AUC [2] of 0.637. It also gave an IC50 [2] of 1490 nM, an AUC [3] of 0.277 and an IC50 [3] of 244 nM. For the same cell line, the AUC [4] was 0.984 and the IC50 [4] was > 100 nM.
For “K-562 (chronic myeloid leukaemia, suspension)”, the AUC [2] was 0.204, the IC50 [2] was 88.5 nM and the AUC [3] was 0.61.
For SNU-475 (liver, adherent), the AUC [5] was 0.982, the IC50 [5] was > 512 nM and the AUC [2] was 0.947. The IC50 [2] was > 10200 nM, the AUC [3] was 0.478 and the IC50 [3] was 877 nM.
KP-2 (pancreas, adherent) was tested, and the AUC [5] was 0.959, the IC50 [5] was > 512 nM and the AUC [1] was 0.978. The IC50 [1] was > 2000 nM, the AUC [2] was 0.947 and the IC50 [2] was > 10200 nM. For the same cell line, the AUC [4] was 0.985 and the IC50 [4] was > 100 nM.
“NCI-H522 (lung adenocarcinoma, adherent)” was tested, and the AUC [2] was 0.96, the IC50 [2] was > 10200 nM and the AUC [3] was 0.276. The IC50 [3] was 203 nM, the AUC [4] was 0.982 and the IC50 [4] was > 100 nM.
Cell Line GAK (melanoma, adherent) has an AUC [3] of 0.425, an IC50 [3] of 630 nM and an AUC [4] of 0.977. The IC50 [4] was > 100 nM.
In the case of “NCI-H661 (large cell lung carcinoma, adherent)”, the AUC [5] is reported as 0.926, the IC50 [5] is reported as > 512 nM and the AUC [1] is reported as 0.85. For the same cell line, the IC50 [1] was > 2000 nM, the AUC [2] was 0.914 and the IC50 [2] was > 10200 nM. For the same cell line, the AUC [4] was 0.98 and the IC50 [4] was > 100 nM.
With CAL-62 (thyroid, adherent) the AUC [5] was 0.888, the IC50 [5] was > 512 nM and the AUC [1] was 0.859. The IC50 [1] was 1540 nM, the AUC [2] was 0.932 and the IC50 [2] was > 10200 nM. The AUC [4] was 0.94 and the IC50 [4] was > 100 nM.
With NCI-H630 (large intestine, adherent) the AUC [5] was 0.904, the IC50 [5] was > 512 nM and the AUC [1] was 0.969. For the same cell line, the IC50 [1] was > 2000 nM, the AUC [2] was 0.974 and the IC50 [2] was > 10200 nM. For the same cell line, the AUC [4] was 0.976 and the IC50 [4] was > 100 nM.
With Ca9-22 (head and neck, adherent) the AUC [5] was 0.975, the IC50 [5] was > 512 nM and the AUC [1] was 0.863. For the same cell line, the IC50 [1] was 1520 nM, the AUC [2] was 0.926 and the IC50 [2] was > 10200 nM. The AUC [4] was 0.987 and the IC50 [4] was > 100 nM.
With “HOP-92 (large cell lung carcinoma, adherent)” the AUC [1] was 0.878, the IC50 [1] was > 2000 nM and the AUC [2] was 0.985. For the same cell line, the IC50 [2] was > 10200 nM, the AUC [3] was 0.611 and the IC50 [3] was 2130 nM. For the same cell line, the AUC [4] was 0.981 and the IC50 [4] was > 100 nM.
With “NCI-H520 (lung squamous cell carcinoma, adherent)” the AUC [5] was 0.967, the IC50 [5] was > 512 nM and the AUC [1] was 0.987. The IC50 [1] was > 2000 nM, the AUC [2] was 0.711 and the IC50 [2] was 2570 nM. For the same cell line, the AUC [4] was 0.985 and the IC50 [4] was > 100 nM.
For NB1 (neuroblastoma, semi-adherent), the AUC [5] was 0.984, the IC50 [5] was > 512 nM and the AUC [1] was 0.962. For the same cell line, the IC50 [1] was > 2000 nM, the AUC [2] was 0.876 and the IC50 [2] was > 10200 nM. The AUC [4] was 0.981 and the IC50 [4] was > 100 nM.
TMK-1 (stomach, adherent) was tested, and the AUC [5] was 0.942, the IC50 [5] was > 512 nM and the AUC [1] was 0.919. For the same cell line, the IC50 [1] was > 2000 nM, the AUC [2] was 0.986 and the IC50 [2] was > 10200 nM. The AUC [4] was 0.961 and the IC50 [4] was > 100 nM.
“HEL (acute myeloid leukaemia, semi-adherent)” was tested, and the AUC [2] was 0.91, the IC50 [2] was > 10200 nM and the AUC [3] was 0.182. The IC50 [3] was 140 nM, the AUC [4] was 0.989 and the IC50 [4] was > 100 nM.
In the case of Daoy (medulloblastoma, adherent), the AUC [5] is reported as 0.919, the IC50 [5] is reported as > 512 nM and the AUC [1] is reported as 0.941. For the same cell line, the IC50 [1] was > 2000 nM, the AUC [2] was 0.98 and the IC50 [2] was > 10200 nM. For the same cell line, the AUC [4] was 0.988 and the IC50 [4] was > 100 nM.
OVCAR-4 (ovary, adherent) was tested, and the AUC [1] was 0.849, the IC50 [1] was > 2000 nM and the AUC [2] was 0.878. For the same cell line, the IC50 [2] was > 10200 nM, the AUC [3] was 0.468 and the IC50 [3] was 786 nM. The AUC [4] was 0.962 and the IC50 [4] was > 100 nM.
For HCC2998 (large intestine, adherent), the AUC [1] was 0.987, the IC50 [1] was > 2000 nM and the AUC [2] was 0.908. For the same cell line, the IC50 [2] was > 10200 nM, the AUC [3] was 0.243 and the IC50 [3] was 186 nM. The AUC [4] was 0.984 and the IC50 [4] was > 100 nM.
Work on COLO-205 (large intestine, suspension) yielded an AUC [5] of 0.743, an IC50 [5] of 157 nM and an AUC [1] of 0.962. For the same cell line, the IC50 [1] was > 2000 nM, the AUC [2] was 0.849 and the IC50 [2] was 7500 nM. For the same cell line, the AUC [4] was 0.986 and the IC50 [4] was > 100 nM.
In the case of RPMI-8226 (myeloma, suspension), the AUC [1] is reported as 0.879, the IC50 [1] is reported as 1590 nM and the AUC [2] is reported as 0.972. The IC50 [2] was > 10200 nM, the AUC [3] was 0.535 and the IC50 [3] was 1230 nM. The AUC [4] was 0.986 and the IC50 [4] was > 100 nM.
With OVCAR-3 (ovary, adherent) the AUC [2] was 0.986, the IC50 [2] was > 10200 nM and the AUC [3] was 0.501. The IC50 [3] was 1000 nM, the AUC [4] was 0.985 and the IC50 [4] was > 100 nM.
In the case of “NCI-H2228 (lung adenocarcinoma, adherent)”, the AUC [2] is reported as 0.955, the IC50 [2] is reported as > 10200 nM and the AUC [3] is reported as 0.085. For the same cell line, the IC50 [3] was < 62.5 nM, the AUC [4] was 0.973 and the IC50 [4] was > 100 nM.
With Caov-3 (ovary, adherent) the AUC [5] was 0.943, the IC50 [5] was > 512 nM and the AUC [2] was 0.957. For the same cell line, the IC50 [2] was > 10200 nM, the AUC [3] was 0.236 and the IC50 [3] was 193 nM.
In the case of BxPC-3 (pancreas, adherent), the AUC [1] is reported as 0.975, the IC50 [1] is reported as > 2000 nM and the AUC [2] is reported as 0.832. It also gave an IC50 [2] of 7680 nM, an AUC [3] of 0.442 and an IC50 [3] of 682 nM. The AUC [4] was 0.982 and the IC50 [4] was > 100 nM.
In the case of UM-UC-3 (bladder, adherent), the AUC [5] is reported as 0.897, the IC50 [5] is reported as > 512 nM and the AUC [1] is reported as 0.87. It also gave an IC50 [1] of 1670 nM, an AUC [2] of 0.817 and an IC50 [2] of 5280 nM. For the same cell line, the AUC [4] was 0.985 and the IC50 [4] was > 100 nM.
